Relative growth data for 39 compounds are collected here from the supplement of paper PMC9446081.

Screen size: about 39,000 compounds; about 220 (0.56%) showed activity. The list shows a part of the results.
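Note: static incubation at 37 °C against the wild-type strain, values averaged over two biological replicates.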

The test system of this test is Escherichia coli K-12 BW25113. Description: relative growth (OD600 normalised to plate interquartile mean) (fraction); higher = less growth inhibition, active = 0.2 or less. Particulars: 50 µM; LB; incubation time: overnight (16-24 h).
Consider `COc1ccc(CN(C)C[C@H]2OCCCC[C@H](C)Oc3ccc(NC(=O)Nc4ccc5c(c4)OCO5)cc3C(=O)N([C@H](C)CO)C[C@@H]2C)cc1`, for which the relative growth was inactive: 0.968.
Next, `COCC(=O)N(C)C[C@@H]1Oc2cc(C#C[C@@H](C)O)ccc2S(=O)(=O)N([C@@H](C)CO)C[C@H]1C`: inactive: 0.97; `C[C@@H](N)c1ccc(C(=O)Nc2ccnc3[nH]ccc23)cc1`: inactive: 1.01; `C[C@H](O)C1=C[C@]2(CC[C@@H]3C(C(=O)O)=CO[C@@H](O[C@@H]4O[C@H](CO)[C@@H](O)[C@H](O)[C@H]4O)[C@@H]32)OC1=O`: inactive: 0.947.
Next, `COc1ccc(CN(C)C[C@@H]2OCCCC[C@@H](C)Oc3ccc(NC(=O)Cc4ccccc4)cc3C(=O)N([C@@H](C)CO)C[C@@H]2C)cc1`: inactive: 0.983.
On to `CC(C)NC(=O)N(C)C[C@@H]1Oc2ccc(NC(=O)NC3CCCCC3)cc2CC(=O)N([C@H](C)CO)C[C@H]1C`, for which the relative growth was inactive: 1.01.
As for `C[C@H](CO)N1C[C@H](C)[C@@H](CN(C)S(=O)(=O)c2cccs2)Oc2ccc(NC(=O)c3ccncc3)cc2C1=O`, the relative growth was inactive: 0.994.
The value for `Cc1c(OCC(F)(F)F)ccnc1CS(=O)c1nc2ccccc2[nH]1` (centres undefined) was inactive: 0.964; that for `C[C@H]1CN([C@@H](C)CO)C(=O)Cc2cc(NC(=O)NC3CCCCC3)ccc2O[C@H]1CN(C)S(=O)(=O)c1cn(C)cn1` was inactive: 0.985.
Next, `C[C@@H]1CCCCO[C@@H](CN(C)C(=O)NC2CCCCC2)[C@@H](C)CN([C@H](C)CO)C(=O)c2cc(NC(=O)Nc3ccc(C(F)(F)F)cc3)ccc2O1`: inactive: 1.01.
The value for `C[C@@H]1CCCCO[C@H](CN(C)S(=O)(=O)c2ccc(F)cc2)[C@H](C)CN([C@@H](C)CO)C(=O)c2cc(NS(=O)(=O)c3cn(C)cn3)ccc2O1` was inactive: 0.98.
As for `CO[C@@H]1CN(C)C(=O)c2ccc(NS(=O)(=O)c3cn(C)cn3)cc2OC[C@@H](C)N(CC2CC2)C[C@@H]1C`, the relative growth was inactive: 1.05.
The value for `C[C@H]1CN([C@@H](C)CO)C(=O)c2cc(NC(=O)NC3CCCCC3)ccc2O[C@H]1CN(C)S(=O)(=O)c1cn(C)cn1` was inactive: 0.994; that for `C=CCN1C(=O)[C@@]2(O[C@@H](CCO)[C@H]([Si](C)(C)F)[C@H]2C)c2cc(N3C(=O)c4cccc5cccc3c45)ccc21` was inactive: 0.967.
The value for `C[C@@H](Sc1nc2ncnc(N)c2[nH]1)C(=O)O` was inactive: 0.932.
`CCOC(=O)C(=O)N(C)CC(OC)OC`: the relative growth is inactive: 1.
In the case of `Cc1noc(C)c1NC(=O)Nc1ccc2c(c1)CC(=O)N([C@H](C)CO)C[C@@H](C)[C@@H](CN(C)CC1CC1)O2`, the relative growth was inactive: 0.982.
The value for `O=C(C[C@H]1C=C[C@H](NC(=O)Nc2cc(F)ccc2F)[C@H](CO)O1)NCCCN1CCOCC1` was inactive: 0.99.
The value for `CC(C)NC(=O)Nc1ccc2c(c1)C(=O)N([C@@H](C)CO)C[C@@H](C)[C@@H](CN(C)C(=O)Nc1ccc(C(F)(F)F)cc1)OCCCC[C@H](C)O2` was inactive: 1.01; that for `COc1cccc(C#Cc2ccc3c(c2)O[C@H](CN(C)S(=O)(=O)c2ccccc2F)[C@H](C)CN([C@@H](C)CO)S3(=O)=O)c1` was inactive: 1.03; that for `COc1c2ccoc2nc2c(OC)c(OCC(O)C(C)(C)O)ccc12` (centres undefined) was inactive: 1.02.
Next, `C[C@@H]1CN([C@H](C)CO)C(=O)c2cc(NC(=O)c3ccncc3)ccc2O[C@@H]1CN(C)S(=O)(=O)c1ccc(F)cc1`: inactive: 0.985; `Cc1noc(C)c1NC(=O)N(C)C[C@@H]1OCCCC[C@@H](C)Oc2ccc(NS(=O)(=O)c3ccc(F)cc3)cc2C(=O)N([C@H](C)CO)C[C@@H]1C`: inactive: 1.02.
On to `COc1ccc(-c2cnc3c(c2)C(=O)N([C@H](C)CO)C[C@H](C)[C@H](CN(C)S(=O)(=O)c2ccc(C#N)cc2)O3)cc1`, for which the relative growth was inactive: 0.977.
Next, `C[C@@H]1CN([C@@H](C)CO)C(=O)Cc2cc(NC(=O)Cn3cnnn3)ccc2O[C@@H]1CN(C)C(=O)Nc1cccc2ccccc12`: inactive: 0.993.
The value for `Cn1cnc(S(=O)(=O)N[C@H]2C=C[C@@H](CC(=O)N3CCN(c4ccccc4)CC3)O[C@@H]2CO)c1` was inactive: 1; that for `CC(C)NC(=O)N[C@@H]1C=C[C@H](CC(=O)O)O[C@H]1CO` was inactive: 0.989; that for `O=C(NCCc1ccccc1)c1nnc[nH]1` was inactive: 0.987.
The value for `COCC(=O)Nc1ccc2c(c1)OC[C@H](C)N(C(=O)c1ccccc1F)C[C@@H](C)[C@@H](OC)CN(C)C2=O` was inactive: 1; that for `O=C(CCCCCNC(=O)OCc1ccc(CO[C@H]2C[C@@H](c3ccc(C(F)(F)F)cc3)C=C(C(=O)N3CCN(Cc4ccccc4)CC3)O2)cc1)NO` was inactive: 0.983.
As to `Cc1ccc(S(=O)(=O)Nc2ccc3c(c2)CC(=O)N([C@H](C)CO)C[C@H](C)[C@@H](CN(C)C(=O)Nc2ccc(C(F)(F)F)cc2)O3)cc1`, the relative growth is inactive: 0.993.
The value for `C[C@@H]1CN([C@H](C)CO)C(=O)c2cc(NC(=O)C3CCCCC3)ccc2O[C@H]1CN(C)C(=O)Nc1ccc(C(F)(F)F)cc1` was inactive: 0.987; that for `C[C@@H]1CN([C@H](C)CO)C(=O)c2cc(NS(=O)(=O)c3cccs3)ccc2O[C@@H]1CN(C)S(=O)(=O)c1ccccc1` was inactive: 0.985.
The value for `CC(C)NC(=O)Nc1ccc2c(c1)C(=O)N([C@@H](C)CO)C[C@@H](C)[C@H](CN(C)C(=O)Nc1ccc3c(c1)OCO3)O2` was inactive: 0.995; that for `C[C@@H]1CCCCO[C@@H](CN(C)C(=O)c2ccccc2)[C@@H](C)CN([C@H](C)CO)C(=O)c2cc(NC(=O)Nc3cccc4ccccc34)ccc2O1` was inactive: 1.01.
The value for `C[C@H]1CN([C@@H](C)CO)C(=O)c2cc(NC(=O)Cn3cnnn3)ccc2O[C@H]1CN(C)C(=O)Nc1cccc2ccccc12` was inactive: 0.992; that for `COc1ccc(NC(=O)Nc2cccc3c2O[C@H](CN(C)S(C)(=O)=O)[C@H](C)CN([C@H](C)CO)C3=O)cc1` was inactive: 1.03; that for `COc1cc([C@@H](O)CO)ccc1OS(=O)(=O)O` was inactive: 1.02.
On to `COc1ccc(CN(C)C[C@H]2OCCCC[C@H](C)Oc3ccc(NC(=O)Nc4ccc(F)cc4)cc3C(=O)N([C@@H](C)CO)C[C@@H]2C)cc1`, for which the relative growth is inactive: 0.99.
